This is an account of results in the supplement of paper PMC3334620.

Over roughly 33,000 sequences, “E-score (-0.5 to 0.5)” has its median near -0.04; the highest 2% begin near 0.36. This is one part of the list.

For this experiment, the target named is T1, Hmlalpha2 (UniProt P0CY09).
T1 sequence: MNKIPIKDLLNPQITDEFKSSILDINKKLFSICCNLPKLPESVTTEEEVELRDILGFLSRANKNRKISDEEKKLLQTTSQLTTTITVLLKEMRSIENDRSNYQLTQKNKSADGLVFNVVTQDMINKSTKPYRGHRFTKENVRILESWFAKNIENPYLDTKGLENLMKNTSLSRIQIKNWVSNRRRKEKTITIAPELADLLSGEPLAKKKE
The experiment is described as follows: PBM E-score (8-mer binding enrichment) (E-score (-0.5 to 0.5)); higher = stronger / more preferred TF binding; most listed sequences are background and not binding sites. Particulars: protein concentration: 200 nM; construct: GST-full length. The essentials: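 Universal all-10-mer Agilent arrays, fresh or stripped once, were converted to double-stranded form by primer extension. GST-tagged yeast transcription factors from PURExpress in vitro transcription/translation, full-length or DNA-binding domain only, were applied at about 100-200 nM and detected with fluorescent anti-GST. After masliner normalisation, the Universal PBM Analysis Suite scored each ungapped eight-base word together with its reverse complement by E-score.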
AATGAGCG: the “PBM E-score” value is 0.028.
Turning to CGATATCC, the “PBM E-score” value is -0.0816.
As to ATACAAGA, the “PBM E-score” value was found to be 0.323.
With GGATCTAC the figure was 0.0822; with CGATGTAA, 0.417.
The figure for AACTGACC is -0.307; for GGTATGGA it is -0.18.
Consider AACAACCA, for which the “PBM E-score” value amounted to 0.22.
For the sequence CTCCATCC, the “PBM E-score” value is -0.1.
As for ACGCGTAG, the “PBM E-score” value was determined as 0.298.
The figure for CATCACGG is -0.0883; for CTAAGCAC it is -0.0824.
The figure for GACTAGGC is -0.154; for AAGGTGCT it is -0.177; for CCCAATGA it is -0.161.
The figure for TCGAAAGA is -0.0098.
Regarding CTCCCTTA, the “PBM E-score” value is -0.254.
With CCCATGTC the figure was 0.161; with CCATCCTA, -0.19; with CGGGCCAC, -0.312.
The figure for TAGAATCA is 0.0335; for ATTAACCC it is 0.0714; for ACTAGTGA it is -0.0716.
The figure for CTAAATTA is 0.189; for GCAGCCGC it is -0.213.
For GGTCGCCA, the “PBM E-score” value is -0.341.
The figure for AGTAGCGC is -0.0395; for GCTTGGAC it is -0.267; for AAAACTTG it is 0.0078.
Consider GCCCAAGC, for which the “PBM E-score” value was -0.248.
With CACGGGAC the figure was 0.0197.
With AATGCGAC the figure was 0.109.
With GAGACTAA, the “PBM E-score” value was -0.166.
With CACCCGCG the figure was 0.143; with CGGGCAGC, -0.188.
For the sequence GCGGGTCA, the “PBM E-score” value turned out to be 0.0968.
With AGCCGTTA the figure was -0.0185; with GCCGCGGA, -0.246.
The figure for CTAGTCAG is -0.223; for GGCCCTAA it is -0.136.
With CGGATCCG the figure was -0.145; with TATAGGGA, -0.126; with TATTCCCA, -0.0559.
For CAGAGTCA, the “PBM E-score” value is -0.197.
As to AGATGGTC, the “PBM E-score” value is -0.0916.
Take CGATCTTC: the “PBM E-score” value was -0.257.
With AACTACGG the figure was -0.155; with CCCCGTTA, -0.145.
With AACGCTCT the figure was -0.136; with CAGCCCAG, -0.352.
With AGGAGGTC the figure was -0.21; with CTTACAAG, 0.312.
On to AAATTTGA, for which the “PBM E-score” value came to 0.143.
With ACATACCT the figure was 0.303; with GCGATTCC, -0.25.
In the case of GTACTGAC, the “PBM E-score” value is -0.0294.
With AAATGCCG the figure was -0.02.
With TCGGAGCA the figure was -0.279; with CCGAACCA, -0.278; with ACCTGAGA, -0.096.
The figure for AGCCCGCA is -0.0978; for AATGATTC it is 0.00129.
For CCCTCTAC, the “PBM E-score” value is -0.09.
With ACCGACCC, the “PBM E-score” value was -0.173.
With GAGCCCGA the figure was -0.102; with ACCGCAGT, -0.0348; with AACCACTG, -0.0413.
With AAAAGGAC, the “PBM E-score” value was -0.0292.
For the sequence GAGATTGC, the “PBM E-score” value was -0.216.
For the sequence AGCGTAGC, the “PBM E-score” value is -0.0881.
On to AATAGCGG, for which the “PBM E-score” value was -0.132.
The figure for GAGTATTA is 0.213; for GCAGAGTA it is 0.154.
With CTCCGCCC the figure was -0.264; with CCTTCGTC, -0.0859.
Turning to CAAACGGC, the “PBM E-score” value is -0.304.
With CCTGTGAC the figure was 0.0291; with ATTGAAGG, 0.0709; with CCGGCATC, -0.271.
With AAGCTGAC the figure was -0.0181.
As to CTATAGTC, the “PBM E-score” value was 0.0177.
The figure for CAACACCG is 0.0242; for AACCGTAT it is -0.112.
With ATTCCTCG the figure was 0.0272.
Consider AAGAGTAA, for which the “PBM E-score” value amounted to 0.277.
With ACTTACAA the figure was 0.29.
